From PubChem BioAssay AID493208 (National Center for Advancing Translational Sciences (NCATS), 2011)
Out of some 44,000 compounds screened, about 340 (0.77%) were called active. Roughly 5% stayed inconclusive and do not appear here. Calls come from the whole dose curve; as a rule, active = well fitted inhibition curve with a large enough effect; inconclusive = small, poorly fitted or top-dose-only effect; inactive = flat fitted curve, though single readings scatter. This is one part of the list.

Assay: Acumen qHTS Assay for Inhibitors of the mTORC1 Signaling Pathway in MEF (Tsc2-/-, p53-/-) Cells: Sytravon; note: nearly all actives have a fitted effect of over 50% in size;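 for activity change, negative = inhibition: plate controls were DMSO for no effect and rapamycin for full effect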
Details: phospho-rpS6 immunofluorescence/PI, 24 h; series mostly up to 38.3 µM; activity change, negative = inhibition: at the top concentration
Procedure, shortened: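 Compounds act on Tsc2-/-, p53-/- fibroblasts carrying an empty vector for 24 h before fixation and dual staining for phospho-S6 and DNA (propidium iodide). Values are percentages of cells above a rapamycin-defined pS6/PI threshold.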
Potency is the fitted concentration of half-maximal effect.

Activity change, negative = inhibition, inactive:
CCCCCCc1c(C)c2c(cc(C)c3c(C)c(C)oc32)oc1=O -16.1%, Oc1c(C(c2ccccc2F)N2CCC3(CC2)OCCO3)sc2nc(-c3ccco3)nn12 (centres undefined) -1.72%, CC(=O)c1cccc(NC(=O)C2=CC(c3ccc(F)cc3)=NS(=O)(=O)N2C)c1 -6.52%, CCCCN(C(=O)Nc1ccc(Cl)cc1)C1CCN(C(C)=O)CC1 -16.7%, O=C(NC1CCCCC1)c1ccc(CSc2nc3ccncc3n2Cc2ccccc2)cc1 -3.04%, COC(=O)c1cc2oc3ccccc3c2n1CC(=O)Nc1ccc(OC)c(OC)c1 -4.18%, COc1ccc(OC)c(CNC(=O)c2ccc(Sc3ccc(Cl)cc3)c(NC(C)=O)c2)c1 13.4%, O=C(NCCc1ccccc1)c1ccc(Cn2c(=O)c3cccn3c3cccnc32)cc1 0.835%, Cc1ccc2onc(CC(=O)N3CCN(c4ccc(Cl)cc4)CC3)c2c1 2.37%, Cc1ccc(NC(=O)Cn2c(=O)n(CCCC(=O)NCc3ccc4c(c3)OCO4)c(=O)c3ccccc32)cc1 -14.6%, CCOc1cc(C2C(C(=O)Nc3ccccc3)=C(C)Nc3ncnn32)cc(Br)c1O (centres undefined) 1.79%, COc1ccc(NC(=O)CN2C(=O)CSc3ccc(S(=O)(=O)N(C)C)cc32)cc1OC -15.6%, Cc1cc2c(cc1S(=O)(=O)N(CCO)Cc1ccccc1)OCC(=O)N2 -6.13%, Cc1ccc(NC(=O)Cn2c(CCC(=O)O)ccc2-c2cccs2)cc1Cl -2.41%, CCc1cccc(CC)c1N(COC)C(=O)Cn1c(CC)nc2ccccc21 -5.93%, Cc1ccc(C)c(NC(=O)CCS(=O)(=O)c2cccc3nsnc23)c1 -3.85%, Cn1c(=O)oc2cc(S(=O)(=O)N3CCCC(C(=O)N4CCN(c5ccc(Cl)cc5)CC4)C3)ccc21 (centres undefined) -2.15%, CCc1ccc2nc(N3CCN(C(=O)c4ccccc4)CC3)sc2c1 -4.22%, Cc1ccc(C)c(N2CCN(C(=O)C3CCN(S(=O)(=O)c4ccc5[nH]c(=O)oc5c4)CC3)CC2)c1 -11.1%, Cc1ccc(CNC(=O)c2cccc(N3CCCS3(=O)=O)c2)cc1 1.1%, COC(=O)c1cccc(NC(=O)N(C)CCc2c(C)nn(C)c2C)c1 0%, CN(C(=O)CSc1nc2ccc(NC(=O)c3ccccc3F)cc2s1)c1ccccc1 -6.48%, CCCCn1cc(S(=O)(=O)c2ccc(OCC)cc2)c(=O)c2cc(OC)c(OC)cc21 -2.58%, CCc1ccc(-n2nc3ccc(NC(=O)c4cc(Cl)c(OC)c(Cl)c4)cc3n2)cc1 13.8%, CCOc1ccc(C2C(=O)N(C3CCCCCC3)CC(=O)N2CCC2=CCCCC2)cc1OC (centres undefined) 3.65%, CCOc1ccc(CNC(=O)Cn2nc(C)n3cccc3c2=O)cc1 -2.38%, Cc1ccc(NC(=O)CN(CCc2ccccc2)S(=O)(=O)c2ccccc2)c(C)c1 0.894%, Cc1ccc(CNC(=O)Cn2c(=O)n(Cc3ccccc3)c(=O)c3c2c2cc(C)ccc2n3C)cc1 -6.12%, COc1ccc(CN2CCc3nc(Nc4ccccc4)ncc3C2)c(OC)c1OC 0%, COc1cc(N2C(=O)CSC23C(=O)N(C)c2ccccc23)cc(OC)c1OC (centres undefined) 2.08%, COCCN1Cc2cccc(C(=O)Nc3ccc(C)c(F)c3)c2C1=O 0.763%, Cc1cc(C)cc(NC(=O)C(=O)NCC(c2ccc3c(c2)OCO3)N2CCOCC2)c1 (centres undefined) 0.287%, Fc1ccc(-c2cc(-c3nc(-c4ccccc4)no3)[nH]n2)cc1 7.55%, COc1ccc(Nc2nc3c(S(=O)(=O)c4ccccc4)nnn3c3ccc(Cl)cc23)c(OC)c1 -5.92%, CC(C)c1ccc(NC(=O)c2cn(C3CCCCC3)c(=O)c3c2c2ccccc2n3C)cc1 -11.7%, Cc1ccccc1NC(=O)N1CCc2cc(S(=O)(=O)N3CCC(C)CC3)ccc21 -0.666%, Cc1ccccc1CNC(=O)c1cccc(NC(=O)c2nsc3ccccc23)c1 1.22%, COc1ccc(-c2nc(C)c(CCNC(=O)c3ccc(F)c(F)c3)s2)cc1 -3.82%, COc1ccccc1C1=NS(=O)(=O)N(C)C(C(=O)Nc2cc(OC)c(OC)c(OC)c2)=C1 0.228%, Cc1nc2nc(SCC(=O)Nc3cccc(Cl)c3)nn2c(C)c1Cc1ccccc1 -14.4%, CCCCn1c(=N)c(S(=O)(=O)c2ccccc2)cc2c(=O)n3cccc(C)c3nc21 9.04%, CC(C)Cn1cc(NC(=O)NCc2ccccc2)c2ccccc2c1=O 2.57%, Cc1ccc2c(c1)c1c(c(=O)n(-c3cccc(Cl)c3)c(=O)n1CC(=O)c1ccc(Cl)cc1)n2C 0%, COc1ccc(N2C(=O)CSC23C(=O)N(Cc2ccccc2F)c2ccccc23)cc1Cl (centres undefined) -10.1%, O=S(=O)(NCc1ccccc1Cl)c1ccc(-c2cnc(C3CC3)o2)cc1 -7.97%, COc1ccc(-c2cn3cccnc3n2)cc1NC(=O)COc1ccccc1 1.07%, Cc1c(CC(=O)N2CCCCC2)c(=O)oc2cc3occ(C(C)(C)C)c3cc12 1.76%, CCC1=Nc2cc(C(=O)NCc3ccccc3OC)ccc2Sc2ccc(Cl)cc21 10.5%, COCCNc1ncnc2c1cnn2-c1cc(Cl)ccc1C 8.88%, Cc1cc(C)c2c(n1)SCC(=O)N2CC(=O)Nc1ccc(C)c(C)c1 -4.57%, Cc1ccc(OCC(=O)Nc2ccc(OCc3cc(=O)n4ccsc4n3)cc2)cc1 1.76%, CCC(=O)N1c2ccccc2CC1C(=O)NCCc1ccccc1Cl (centres undefined) 7.36%, Cc1ccc(S(=O)(=O)C2(C(=O)Nc3ccc(C)c(Cl)c3)CC2)cc1 0.805%, Cc1ccc(CNC(=O)CCS(=O)(=O)c2cc3c(cc2Cl)NC(=O)CO3)cc1 1.6%, COc1ccc(N2CCN(CC(O)COc3ccc(C)cc3C)CC2)cc1 (centres undefined) -2.2%, COc1ccc(N2CCN(c3ncnc4c3cnn4-c3ccc(C)c(Cl)c3)CC2)cc1 10.3%, CC(C)(C)C(=O)NC1(C(F)(F)F)NC(=O)N(c2ccc(F)cc2)C1=O (centres undefined) 2.94%, Cc1ccc(Cl)cc1N1CCN(C(=O)CN2C(=O)COc3ccc(S(=O)(=O)N4CCC(C)CC4)cc32)CC1 -0.0585%, O=C(NCc1ccc(Cl)cc1)c1ccc(NC(=O)N2CC3CCCN3c3ccccc32)cc1 (centres undefined) 3.02%, Cc1c(C(=O)NCc2ccccc2Cl)sc2nc(-c3ccc(F)cc3)cn12 -7.91%, COc1ccc(CNC(=O)c2ccc(-c3nc(CSc4ccc(C)cc4)c(C)o3)cc2)cc1OC -0.137%, Cc1nn(C(=O)c2ccccc2)c(C)c1S(=O)(=O)N1CCOCC1 0.666%, CCC(=O)N1CCc2cc(S(=O)(=O)NC(C(=O)NCc3ccccc3Cl)C(C)C)ccc21 (centres undefined) -2.71%, CCOC(=O)C1CCN(C(=O)Cn2c(-c3cccs3)cc3cc(Cl)ccc32)CC1 -9.29%, CCOC(=O)CN(Cc1ccccc1)C(C(=O)NC1CCCCC1)c1ccc(C)cc1 (centres undefined) -15.5%, CCOc1ccccc1CNS(=O)(=O)c1ccc2c(c1)C(C)(C)C(=O)N2C -1.45%, Cc1ccc(C)c(NS(=O)(=O)c2ccc3oc(=O)c4ncn(C)c4c3c2)c1 0.447%, CCn1c(=O)c2cc(C(=O)NCCc3ccc(Cl)cc3)sc2c2ccccc21 1.55%, CCn1c(=O)c2sccc2n2c(CCC(=O)Nc3ccc(C(C)C)cc3)nnc12 0.542%, COc1ccc(OCC(=O)NC(Cc2c[nH]c3ccccc23)C(=O)O)cc1 (centres undefined) 3.12%, CCc1nnc(SC(CC)C(=O)Nc2cc(C)ccc2C)c2cc3occc3n12 (centres undefined) -16%, COc1cc(C2c3c(oc4ccccc4c3=O)C(=O)N2Cc2ccc(C)cc2)ccc1O (centres undefined) -1.09%, CC1CCN(CCCNC(=O)CN2C(=O)CSc3ccc(S(=O)(=O)N4CCOCC4)cc32)CC1 4.64%, COc1ccc(NC(=O)c2cc3c(=O)n(Cc4cccnc4)ccc3nc2C)c(OC)c1 -2.59%, Cc1ccc2nc3c(cc(C(=O)NCc4ccco4)c(=N)n3C(C)C)c(=O)n2c1 2.1%, Cc1ccc(NC(=O)c2c(C)oc3ncn(CC(C)C)c(=O)c23)nc1 5.5%, O=C(Nc1ccc(N2CCOCC2)c(C(=O)O)c1)c1ccc(Br)cc1 -9.26%, Cc1ccc(CNC(=O)Cn2ccn(-c3ccc(F)cc3)c(=O)c2=O)cc1 4.19%, CC(NC(=O)CSc1nc(-c2ccccc2F)nc2cc(=O)[nH]n12)c1nc2ccccc2n1C (centres undefined) 0%, Cc1cccc(CN2C(=O)c3ccccc3S(=O)(=O)c3ccc(C(=O)NC4CCCCC4)cc32)c1 -22%, COc1ccc(OCc2ccc(-c3nc(C#N)c(NCc4cccnc4)o3)o2)cc1 -10.1%, CCCC(=O)Nc1ccccc1C(=O)OCc1cc(=O)n2nc(C(C)C)sc2n1 -17.8%, Cc1cccc2c(=O)cc(CSc3ccccc3NC(=O)C(C)(C)C)[nH]c12 0%, CCC(=O)N1CCCc2cc(S(=O)(=O)N3CCC(C(=O)Nc4ccc(C#N)cc4)CC3)ccc21 1.06%, CC(=O)c1cccc(NC(=O)Cn2cc(C(=O)c3cccc(Cl)c3)c(=O)c3ccc(C)nc32)c1 -3.05%, COc1ccc(OC)c(S(=O)(=O)N2CCN(Cc3nc4ccc(C)cc4o3)CC2)c1 10.2%, CCN(C(=O)Cn1c(=O)n(Cc2ccc3c(c2)OCO3)c(=O)c2ccc(C(=O)NC3CCCCC3)cc21)c1cccc(C)c1 1.52%, Cc1cc(C)cc(NC(=O)N2CCN(C(=O)c3nsc4ccccc34)CC2)c1 8.68%, COC(=O)c1ccc(-n2c(/C=C/c3cc(OC)c(OC)c(OC)c3)nc3cc(Cl)ccc3c2=O)cc1 11.5%, CC(=O)Nc1ccc(NC(=O)C(NS(=O)(=O)c2ccc(Br)s2)c2ccccc2)cc1 (centres undefined) -13%, Cc1ccc(CNC(=O)CCc2nc3cccnc3n2Cc2ccccc2)cc1 0.935%, COc1cc(NC(=O)Cn2nnnc2-c2ccccc2F)cc(OC)c1OC 0.0067%, Cc1ccc(Cn2cc(S(=O)(=O)c3ccc(Cl)cc3)c(=O)c3cc4c(cc32)OCO4)cc1 4.2%

Potency, active:
CCNS(=O)(=O)c1cc(-c2nnc(Nc3cccc(C(F)(F)F)c3)c3ccccc23)ccc1C 18.5 µM
